# Where “and” joins values, the source holds several entries; their conditions need not be identical. Identical values can stand only once. Screen size: about 360,000 compounds; about 830 (0.23%) were called active. This list was built around the results that the source calls inconclusive (neither active nor inactive); the mix of calls is not that of the screen.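 The calls were made as follows: active = mean luciferase reporter signal, scaled so untreated is 0 and the glycosylation-blocking control 100, at or above a set limit in every replicate; inconclusive = mean reaches the limit but not every replicate does; inactive = mean below the limit.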
# Assay: increase of ERlucT glycosylation luciferase signal, primary screen, N-linked glycosylation inhibitor project, D54 ERlucT cells, luminescence, set 2 (AID 588692);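 also: luciferase carries N-glycosylation sites so blocking glycosylation raises the light; 0% = median of neutral control wells and 100% = median of 100 nM tunicamycin wells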
# Conditions: 24 h, at 12.5 µM, active compounds read high, percent of 100 nM tunicamycin response
row,Compound,reporter increase
1,CCCCCCC(=O)N(O)C1CC(=O)N(c2ccc(F)cc2)C1=O (stereo not drawn),active: 78.2%
2,Cc1ccc(CNC(=O)COC(=O)c2cc(=O)[nH]c3ccccc23)cc1,inactive: 2.13%
3,Cc1nc(N2CCN(Cc3ccccc3)CC2)nc2c1C(=O)CC(c1ccco1)C2 (stereo not drawn),inactive: -5.3%
4,NCCSSCCN,inconclusive: 25.5%
5,COc1ccc(OCC(=O)NNC(=O)CCc2ccccc2)cc1,inactive: -0.315%
6,O=C(CCl)Nc1cc(-c2ccccc2)nn1-c1ccccc1,inconclusive: 30.4%
7,Cc1ccc(N2C(=O)c3cccc4c([N+](=O)[O-])ccc(c34)C2=O)c2cccnc12,inconclusive: 28.9%
8,COc1cc(C(=O)NC2CCN(C)CC2)ccc1Nc1ncc2c(n1)N(CCc1ccccc1)CCC(=O)N2C,active: 62.1%
9,COc1cccc(-c2nn(-c3ccccc3)cc2/C=C\C(=O)c2cccs2)c1,inconclusive: 25.7%
10,COc1cc(-c2noc(C)c2-c2ccc(N(C)C)nc2)cc(OC)c1OC,inconclusive: 40.2%
11,NC(=O)CC(NC(=O)Cc1ccc(Br)cc1)c1ccc(NCC2CC2)c([N+](=O)[O-])c1 (stereo not drawn),active: 44.9%
12,CN(C)c1ccc(/C=N/NC(=O)CCC(=O)NCc2ccccc2)cc1,inactive: 4.04%
13,CC1(C(=O)NCc2ccccc2)Cc2c(-c3cccc(C(N)=O)c3)ccnc2O1 (stereo not drawn),inconclusive: 25.8%
14,C#CCOCCOCCOCCNc1nc(N2CCN(C(=O)[C@H](CCCCN)n3cc(CN)nn3)CC2)nc(N2CCN(C(=O)[C@H](CCCCN)n3cc(CN)nn3)CC2)n1,inactive: -1.66%
15,CNc1nc(-c2ccc([N+](=O)[O-])cc2)cs1,inactive: -1.29%
16,OC1CCCN(Cc2ccc3ccc4cccc5ccc2c3c45)C1 (stereo not drawn),active: 56.8%
17,Cc1ccc(C)c(NC(=S)NC(NC(=O)Cc2cccc3ccccc23)C(Cl)(Cl)Cl)c1 (stereo not drawn),active: 73.5%
18,CN(C)c1ccc(/C=C/c2ccc3c4ccccc4ccc3[n+]2-c2ccccc2)cc1,inconclusive: 29.9%
19,CCOC(=O)c1ccccc1Nc1cn(C(C)=O)c2ccccc12,inconclusive: 28.2%
20,O=C(CCN1C(=O)/C(=C/c2cccs2)SC1=S)N1CCCCC1,active: 49.8%
21,O=C(NCC(c1cccnc1)N1CCN(c2ccc(F)cc2)CC1)c1ccc2c(c1)OCO2 (stereo not drawn),inactive: -0.872%
22,O=C1c2ccccc2C(=O)C12OC2c1ccc(Cl)cc1Cl (stereo not drawn),inconclusive: 28.2%

row,Compound,reporter increase
1,Cn1nc(-c2ccc(N3CCOCC3)c(NS(=O)(=O)c3ccccc3)c2)c2ccccc2c1=O,inconclusive: 28.4%
2,O=C(Nc1ccc(Cl)cc1)c1cc(S(=O)(=O)Nc2ccccn2)ccc1Cl,inactive: -1.08%
3,COc1ccc(C(=O)c2ccc(N(C)C)cc2)c2ccccc12,inconclusive: 28.7%
4,O=C(C=Cc1cccnc1)c1ccccc1,inconclusive: 26.2%
5,O=C(NCCOC(=O)c1c(F)cccc1Cl)c1c(F)cccc1Cl,inactive: 2.57%
6,CC1=C([N+](=O)[O-])C(c2ccccc2)C2=C(N1)c1ccccc1C2=O (stereo not drawn),inconclusive: 31.6%
7,Cc1ccnc(SCC(=O)N2CCc3ccccc32)n1,inactive: -1.49%
8,Cc1ccc(-c2cc(C(=O)NCC(c3ccccc3)N(C)C)c3ccccc3n2)o1 (stereo not drawn),inconclusive: 25.4%
9,Cc1c(O)cc2c(c1O)C(=O)CC(c1ccccc1)O2 (stereo not drawn),active: 43.1%
10,Cc1ccc2c(c1)NC(=O)[C@@]1(C)[C@@H](c3ccccc3)[C@H]3COc4ccccc4[C@@H]3N1C2=O,active: 35.9%
11,COc1ccc(-n2nc(C(=O)Nc3ccc(OC)c(OC)c3)c3c4ccccc4n(C)c3c2=O)cc1,inactive: 0.625%
12,O=[N+]([O-])c1ccc(Sc2ccncn2)c([N+](=O)[O-])c1,inconclusive: 31.5%
13,C=CC[n+]1ccc(/C=C2\C=Cc3cc(C)ccc3N2CC)c2ccccc21,inconclusive: 33.6%
14,Cc1oc(=O)c(NC(=O)c2ccc(Cl)cc2)cc1C(=O)c1ccccc1,inconclusive: 28%
15,CC(=O)Nc1ccc(CNc2ncnc3ccc(-c4c(C)noc4C)cc23)cc1,active: 50%
16,O=C(NCC1OCCc2ccccc21)c1ccc(NC(=O)c2ccc(Cl)cc2)cc1 (stereo not drawn),inconclusive: 32.1%
17,CCOC(=O)c1c(C)[nH]c(C(=O)N/N=C/c2ccc(OC)c(OC)c2)c1C,inconclusive: 27.3%
18,CCC1(c2ccccc2)NC(=S)N(c2ccc(C)cc2)N1 (stereo not drawn),inactive: 0.163%
19,CCCCCCCCOC(=O)c1cc([N+](=O)[O-])c(Sc2ncnc3nc[nH]c23)c([N+](=O)[O-])c1,inconclusive: 44.7%
20,O=C(C=Cc1ccccc1O)c1ccccc1O,active: 33.2%
21,CC(C)NC[C@@H](O)c1ccc(O)c(O)c1,inactive: 3.71%
22,O=C(O)CSc1cccc2cccnc12,inactive: -5.01% and inactive: -0.324%

row,Compound,reporter increase
1,CC1(C(=O)NCc2ccccc2)Cc2c(-c3ccccc3)ccnc2O1 (stereo not drawn),inconclusive: 29.6%
2,O=CC1=C(c2ccccc2)Oc2ccccc2O1,inconclusive: 28.2%
3,CC(=O)c1cccc(-c2ccnc3c2CC(C(=O)NCc2ccco2)O3)c1 (stereo not drawn),active: 31.7%
4,O=C(CN1C(=O)NC2(CCCCCC2)C1=O)Nc1ccc2c(c1)CCC2,inconclusive: 35.4%
5,COc1ccc(CN(C)c2ncnc3sccc23)c(OC)c1OC,active: 30.3%
6,COc1ccc(Cl)cc1NC(=O)Nc1ccc(C(=O)N2CCCC2)cc1,inconclusive: 30.8%
7,Cc1ccc2nsnc2c1NC(=O)c1ccc([N+](=O)[O-])o1,inconclusive: 29.5%
8,O=C(/C=C/c1cccc([N+](=O)[O-])c1)NC(=S)Nc1ccc(CN2CCOCC2)cc1,inconclusive: 35.3%
9,O=C(N/N=C/c1ccco1)c1ccccc1OCc1ccccc1Cl,inconclusive: 26.5%
10,CN(C)CCNc1ccc2nnn3c4ccc(O)cc4c(=O)c1c23,inconclusive: 53.6%
11,CC(C)C[C@H](NC(=O)c1[nH]cnc1C(=O)N[C@@H](Cc1ccccc1)C(=O)OC(C)(C)C)C(=O)OC(C)(C)C,inactive: -2.74%
12,COc1cc2c(cc1OC)C(=O)N1[C@H]3c4cc(C)ccc4OC[C@@H]3[C@H](c3ccccc3)[C@]1(C)C(=O)N2,active: 52%
13,Cc1cc(NCCCn2ccnc2)n2nc(C)c(-c3ccccc3)c2n1,inconclusive: 26.9%
14,Cc1cc(C)c2nc3nc(C)c(C)cc3c(N)c2c1,active: 95.1%
15,N#Cc1c(-c2ccc(F)cc2)c(-c2ccc(F)cc2)nn(CCO)c1=O,inconclusive: 25.2%
16,COc1ccc(/C=N/NC(=O)c2cccc(NC(=O)c3ccccc3Cl)c2)cc1,active: 34.3%
17,COc1ccc2c(c1)[C@@H]1[C@H](CO2)[C@H](c2ccccc2)[C@]2(C)C(=O)Nc3ccc(C)cc3C(=O)N12,active: 34%
18,C(=N\Nc1nc2ccccc2[nH]1)/c1c[nH]c2ccccc12,inconclusive: 32.3%
19,O=C(O)/C=C/c1ccc(O)c(O)c1,inactive: -0.207%
20,O=C(NCc1ccccc1Cl)c1cccc2c1C(=O)c1ccc(-c3ccc(OC(F)(F)F)cc3)cc1S2(=O)=O,active: 304%
21,Cc1ccc(CSC(Nc2ccc(F)cc2)=C(C#N)C#N)cc1,inactive: -2.91%
22,O=C(NC1CCCCCC1)c1c2c(nc3ccccc13)CCN(Cc1ccccc1)C2,inconclusive: 25.5%

row,Compound,reporter increase
1,CCOCCCNC1=C(Cl)C(=O)c2ccccc2C1=O,inactive: 9.27%
2,Cn1c(N)c(C(=O)COC(=O)c2cc(S(=O)(=O)N3CCOCC3)ccc2F)c(=O)n(C)c1=O,active: 50.4%
3,COc1cc(C(=O)NCCOc2cc(C)cc(C)c2)cc(OC)c1OC,inconclusive: 26.9%
4,Cc1ccc(C=Nc2ccccc2C(N)=O)cc1,inconclusive: 29.7%
5,O=S(=O)(/N=S1/CC=CCN1S(=O)(=O)c1ccccc1)c1ccccc1 (stereo not drawn),inactive: 1.26%
6,Cc1ccc(NC(=O)NNC(=O)Cn2nc(-c3ccccc3)c(-c3ccccc3)c(C#N)c2=O)cc1,inconclusive: 30.2%
7,COC(=O)c1ccc(/C=C(\C#N)c2nc3ccccc3s2)cc1,inactive: 2.11%
8,CCN(CC)CCn1c2ccccc2c2cnc(N=CN(C)C)c(C#N)c21,inconclusive: 25.7%
9,COc1ccc(/C=N\NC(=O)c2sccc2C)cc1Cn1nc(C)cc1C,inconclusive: 25.9%
10,O=C(NCC(=O)N(Cc1cccs1)C(C(=O)NC1CCCCC1)c1ccncc1)c1ccco1 (stereo not drawn),inactive: 1.11%
11,CSc1nnc(-c2sccc2OCc2ccccc2)n1C,inconclusive: 35.4%
12,O=C(N/N=C/c1ccccn1)c1sc2ccccc2c1Cl,inconclusive: 26%
13,CCOC(=O)C1=C(Cc2ccc(OC)cc2)C(=O)c2ccccc2C1=O,inconclusive: 29.3%
14,COc1cccc(C2=NOC(C(=O)NCc3ccccc3)C2)c1 (stereo not drawn),inconclusive: 34.4%
15,O=C(Nc1cccc2ncccc12)c1ccc([N+](=O)[O-])o1,inconclusive: 26.4%
16,O=C1NC(=O)C(=Cc2ccco2)S1,inactive: 0.0855%
17,CC(C)C1N=C(c2ccc3c(c2)OCO3)CC(c2ccccc2O)N1 (stereo not drawn),active: 37.3%
18,O=C(/C=C/c1cccnc1)c1cccc(O)c1,inconclusive: 37.5%
19,CCOc1ccc(-c2c(C(=O)N/N=C/c3ccncc3)nnn2-c2nonc2N)cc1,inactive: 3.41%
20,Cc1nc2ccc(NC(=O)c3ccc(Br)o3)cc2s1,inconclusive: 25.4%
21,CNC(=S)N1CCN(c2cccc(OC)c2)CC1,inactive: 0.501%
22,Cc1ccc2c(c1)C(=O)N1[C@H]3c4cc(Cl)ccc4OC[C@@H]3[C@H](c3ccccc3)[C@]1(C)C(=O)N2,inconclusive: 25.2%
